Test results taken from EPA's CvTdb concentration-time database.
This continues a long series; more values of the same kind are listed elsewhere.

Key:
[1] = tested on: Rat; test: concentration in brain after dosing; settings: 10 min; dosed: 2-Methyltetrahydrofuran; 100 mg/kg; oral; Female; Harlan Sprague Dawley
[2] = tested on: Rat; test: concentration in brain after dosing; settings: 1.5 h; dosed: 2-Methyltetrahydrofuran; 10 mg/kg; iv; Female; F344
[3] = tested on: Rat; test: concentration in brain after dosing; settings: 2 h; dosed: 2-Methyltetrahydrofuran; 30 mg/kg; oral; Male; F344
[4] = tested on: Rat; test: concentration in brain after dosing; settings: 4 h; dosed: 2-Methyltetrahydrofuran; 400 mg/kg; oral; Female; Harlan Sprague Dawley
[5] = tested on: Rat; test: concentration in brain after dosing; settings: 4 h; dosed: 2-Methyltetrahydrofuran; 100 mg/kg; oral; Male; Harlan Sprague Dawley
[6] = tested on: Rat; test: concentration in brain after dosing; settings: 3 h; dosed: 2-Methyltetrahydrofuran; 30 mg/kg; oral; Female; F344
[7] = tested on: Rat; test: concentration in brain after dosing; settings: 1.5 h; dosed: 2-Methyltetrahydrofuran; 100 mg/kg; oral; Male; Harlan Sprague Dawley
[8] = tested on: Rat; test: concentration in plasma after dosing; settings: 10 min; dosed: 2-Methyltetrahydrofuran; 100 mg/kg; oral; Female; Harlan Sprague Dawley
[9] = tested on: Rat; test: concentration in plasma after dosing; settings: 20 min; dosed: 2-Methyltetrahydrofuran; 100 mg/kg; oral; Female; Harlan Sprague Dawley
[10] = tested on: Rat; test: concentration in plasma after dosing; settings: 2.5 h; dosed: 2-Methyltetrahydrofuran; 10 mg/kg; oral; Female; F344
[11] = tested on: Rat; test: concentration in plasma after dosing; settings: 10 min; dosed: 2-Methyltetrahydrofuran; 400 mg/kg; oral; Female; Harlan Sprague Dawley
[12] = tested on: Rat; test: concentration in plasma after dosing; settings: 4 h; dosed: 2-Methyltetrahydrofuran; 400 mg/kg; oral; Female; Harlan Sprague Dawley
[13] = tested on: Rat; test: concentration in plasma after dosing; settings: 0.75 h; dosed: 2-Methyltetrahydrofuran; 30 mg/kg; oral; Female; F344
[14] = tested on: Rat; test: concentration in plasma after dosing; settings: 0.25 h; dosed: 2-Methyltetrahydrofuran; 30 mg/kg; oral; Male; F344
[15] = tested on: Rat; test: concentration in plasma after dosing; settings: 2 min; dosed: Bromochloroacetic acid; 10 mg/kg; iv; Male; F344
[16] = tested on: Rat; test: concentration in plasma after dosing; settings: 10 min; dosed: Bromochloroacetic acid; 10 mg/kg; iv; Male; F344
[17] = tested on: Rat; test: concentration in plasma after dosing; settings: 9 h; dosed: Fluorotelomer alcohol 8+2; 160 mg/kg; oral; Female; Harlan Sprague Dawley
[18] = tested on: Rat; test: concentration in plasma after dosing; settings: dosed: Fluorotelomer alcohol 8+2, 80 mg/kg, oral, Female, Harlan Sprague Dawley
[19] = tested on: Rat; test: concentration in plasma after dosing; settings: dosed: Fluorotelomer alcohol 8+2, 48 mg/kg, oral, Male, Harlan Sprague Dawley
[20] = tested on: Rat; test: concentration in plasma after dosing; settings: 5 h; dosed: Formamide; 90 mg/kg; iv; Male; Harlan Sprague Dawley
[21] = tested on: Rat; test: concentration in plasma after dosing; settings: dosed: Formamide, 90 mg/kg, iv, Male, Harlan Sprague Dawley
[22] = tested on: Rat; test: concentration in plasma after dosing; settings: dosed: Formamide, 600 mg/kg, oral, Female, F344
[23] = tested on: Rat; test: concentration in plasma after dosing; settings: dosed: Formamide, 90 mg/kg, iv, Male, Harlan Sprague Dawley; remark: listed apart in the source
[24] = tested on: Rat; test: concentration in plasma after dosing; settings: dosed: Formamide, 30 mg/kg, iv, Female, F344
[25] = tested on: Rat; test: concentration in plasma after dosing; settings: dosed: Formamide, 600 mg/kg, oral, Female, Harlan Sprague Dawley
[26] = tested on: Rat; test: concentration in plasma after dosing; settings: dosed: Formamide, 90 mg/kg, iv, Male, Harlan Sprague Dawley; remark: listed apart in the source
[27] = tested on: Rat; test: concentration in plasma after dosing; settings: dosed: Formamide, 600 mg/kg, oral, Female, Harlan Sprague Dawley; remark: listed apart in the source
[28] = tested on: Rat; test: concentration in plasma after dosing; settings: dosed: Formamide, 90 mg/kg, iv, Male, Harlan Sprague Dawley; remark: listed apart in the source
[29] = tested on: Rat; test: concentration in plasma after dosing; settings: 0.5 h; dosed: Formamide; 30 mg/kg; iv; Female; F344
[30] = tested on: Rat; test: concentration in plasma after dosing; settings: dosed: Formamide, 90 mg/kg, iv, Male, Harlan Sprague Dawley; remark: listed apart in the source
[31] = tested on: Rat; test: concentration in plasma after dosing; settings: 10 min; dosed: Pyridine; 200 mg/kg; oral; Female; F344
[32] = tested on: Rat; test: concentration in plasma after dosing; settings: 2 min; dosed: Pyridine; 50 mg/kg; oral; Male; Harlan Sprague Dawley
[33] = tested on: Rat; test: concentration in plasma after dosing; settings: 5 min; dosed: Pyridine; 0.5 mg/kg; iv; Male; F344
[34] = tested on: Rat; test: concentration in plasma after dosing; settings: dosed: Pyridine, 5 mg/kg, oral, Female, F344
[35] = tested on: Rat; test: concentration in plasma after dosing; settings: 1 h; dosed: Pyridine; 5 mg/kg; iv; Male; F344
[36] = tested on: Rat; test: concentration in plasma after dosing; settings: 20 min; dosed: Pyridine; 50 mg/kg; oral; Male; Harlan Sprague Dawley
[37] = tested on: Rat; test: concentration in plasma after dosing; settings: 9 h; dosed: Pyridine; 200 mg/kg; oral; Female; F344
[38] = tested on: Rat; test: concentration in plasma after dosing; settings: dosed: Pyridine, 100 mg/kg, oral, Female, F344

CC1CCCO1 (stereo unspecified) [2-Methyltetrahydrofuran]
Settings | concentration in brain [µg/g] | concentration in plasma [ng/mL]
[1] | 43.3 | –
[2] | 0.26 | –
[3] | 2.18 | –
[4] | 64.9 | –
[5] | 8.89 | –
[6] | 0.356 | –
[7] | 29.4 | –
[8] | – | 48900
[9] | – | 49300
[10] | – | 59.6
[11] | – | 226000
[12] | – | 133000
[13] | – | 5530
[14] | – | 16200

O=C(O)C(Cl)Br (stereo unspecified) [Bromochloroacetic acid]
Settings | concentration in plasma [ng/mL]
[15] | 29000
[16] | 3650

OCCC(F)(F)C(F)(F)C(F)(F)C(F)(F)C(F)(F)C(F)(F)C(F)(F)C(F)(F)F [Fluorotelomer alcohol 8+2]
Settings | concentration in plasma [ng/mL]
[17] | 551

concentration in plasma [ng/mL]
Settings | 0.25 h | 0.75 h | 6 h | 48 h
[18] | – | 963 | – | 2.32
[19] | 128 | – | 150 | –

NC=O [Formamide]
Settings | concentration in plasma [ng/mL]
[20] | 112000
[29] | 38700

Settings | concentration in plasma [ng/mL]
[21], 10 min | 150000
[21], 18 h | 54700
[22], 0.5 h | 430000
[22], 48 h | 130000
[23], 1 h | 171000
[23], 3 h | 161000
[24], 10 min | 44600
[24], 18 h | 12900
[25], 0.5 h | 693000
[25], 48 h | 88300
[26], 5 min | 140000
[26], 36 h | 11500
[27], 0.25 h | 476000
[27], 5 h | 697000
[28], 5 min | 134000
[28], 36 h | 9800
[30], 0.25 h | 154000
[30], 24 h | 32900

c1ccncc1 [Pyridine]
Settings | concentration in plasma [ng/mL]
[31] | 90200
[32] | 393
[33] | 440
[35] | 4120
[36] | 39200
[37] | 77900

concentration in plasma [ng/mL]
Settings | 1 h | 2 h | 8 h | 14 h
[34] | 3460 | – | 960 | –
[38] | – | 59900 | – | 51300
